Test results from ChEMBL document CHEMBL5303300, “EUbOPEN Chemogenomics Library - Multiplex” (2023).

Experiments:
Type in all cases: toxicity, cell-based
[1] = tested on: HEK-293T; assay: Multiplex assay against HEK293T; settings: human, 10 µM, compound concentration 10 uM, number of replicates 2
In short: (§1)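 At seeding, live cells were stained with Hoechst33342, BioTracker Green Microtubule Cytoskeleton Dye, MitoTracker Red and Annexin V Alexa Fluor 680. After compound addition they were imaged on a CQ1 microscope at 37°C and 5% CO2, and CellPathfinder machine-learning gating sorted them into Hoechst high-intensity objects or normal cells, with normal cells further split into healthy, pyknosed or fragmented nuclei and pyknosed cells into mitotic or apoptotic. Tubulin, mitochondrial-mass and membrane-permeability phenotypes are given as per cents of cells with healthy nuclei.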

[2] = tested on: U2OS; assay: Multiplex assay against U2OS; settings: human, number of replicates 2; in short: as §1
[3] = tested on: Fibroblast; assay: Multiplex assay against human fibroblast; settings: number of replicates 2; in short: as §1
[4] = 12 h, 1 µM, compound concentration 1 uM
[5] = 12 h, 10 µM, compound concentration 10 uM
[6] = 24 h, 1 µM, compound concentration 1 uM
[7] = 24 h, 10 µM, compound concentration 10 uM
[8] = 48 h, 1 µM, compound concentration 1 uM
[9] = 48 h, 10 µM, compound concentration 10 uM

Compound: Cc1ccc2c(N)c(C(=O)NC3CCc4cc(N5CC6CCC(C5)N6)ccc4C3)sc2n1.O=CO (stereo not given)
- Population Mitotic Cells (%) ([1]; 24 h): 4% and 27%
- Population Mitochondria Different-Phenotype (%) [2, 4]: 0% and 37%
- Population Mitotic Cells (%) [2, 4]: 0% and 48%
- Total Cell Count [2, 4]: 51 and 221
- Population Fragmented Nuclei (%) [2, 5]: 41% and 13%
- Total Cell Count [2, 5]: 55 and 231
- Population Mitochondria Different-Phenotype (%) [2, 6]: 14% and 43%
- Total Cell Count [2, 6]: 49 and 204
- Population Fragmented Nuclei (%) [2, 7]: 41% and 13%
- Population Membrane Permeable-Phenotype (%) [2, 7]: 50% and 9%
- Total Cell Count [2, 7]: 45 and 221
- Total Cell Count [2, 8]: 57 and 215
- Population Fragmented Nuclei (%) [2, 9]: 31% and 6%
- Population Hoechst High Intensity Objects (%) [2, 9]: 4% and 16%
- Population Mitotic Cells (%) [2, 9]: 46% and 12%
- Total Cell Count [2, 9]: 43 and 180

Compound: NC(=O)c1ccc(-c2nc(-c3ccc4c(c3)OCCO4)c(-c3ccccn3)[nH]2)cc1
- Population Tubulin-Different-Phenotype (%) [3, 5]: 16% and 5%
- Population Pyknosed Nuclei (%) [3, 6]: 6% and 20%
- Population Mitotic Cells (%) [2, 4]: 60% and 14%
- Population Fragmented Nuclei (%) [2, 5]: 7% and 27%
- Total Cell Count [2, 5]: 197 and 36
- Population Apoptotic (%) [2, 7]: 84% and 0%
- Population Fragmented Nuclei (%) [2, 7]: 3% and 31%
- Population Mitotic Cells (%) [2, 7]: 16% and 100%
- Total Cell Count [2, 7]: 254 and 47
- Total Cell Count [2, 8]: 164 and 508
- Total Cell Count [2, 9]: 74 and 357

Compound: CN(C)CCCNc1ccnc(Nc2cccc(Cl)c2)n1
- Population Apoptotic (%) ([1]; 48 h): 13% and 57%
- Total Cell Count [2, 4]: 245 and 34
- Total Cell Count [2, 5]: 222 and 28
- Total Cell Count [2, 6]: 47 and 325
- Total Cell Count [2, 7]: 257 and 53
- Total Cell Count [2, 8]: 76 and 656
- Population Mitotic Cells (%) [2, 9]: 5% and 26%
- Total Cell Count [2, 9]: 53 and 279

Compound: COC(=O)Nc1nc2c(s1)-c1c(c(-c3cccnc3)nn1-c1ccc(C3(N(C)C)CC3)cc1)CC2.Cl.Cl
- Population Mitotic Cells (%) [3, 6]: 39% and 12%
- Population Fragmented Nuclei (%) [2, 4]: 50% and 12%
- Population Membrane Permeable-Phenotype (%) [2, 4]: 22% and 7%
- Total Cell Count [2, 4]: 61 and 204
- Population Healthy Nuclei (%) [2, 5]: 2% and 19%
- Population Fragmented Nuclei (%) [2, 6]: 58% and 8%
- Total Cell Count [2, 6]: 63 and 213
- Population Healthy Nuclei (%) [2, 7]: 2% and 17%
- Population Fragmented Nuclei (%) [2, 8]: 58% and 8%
- Total Cell Count [2, 8]: 67 and 240
- Population Healthy Nuclei (%) [2, 9]: 1% and 12%

Compound: COc1ccc(F)c(F)c1C(=O)c1cnc(NC2CCN(S(C)(=O)=O)CC2)nc1N [RG-547]
- Population Membrane Permeable-Phenotype (%) [3, 8]: 63% and 5%
- Population Tubulin-Different-Phenotype (%) [3, 8]: 63% and 5%
- Total Cell Count [3, 8]: 26 and 178
- Total Cell Count [2, 4]: 38 and 180
- Total Cell Count [2, 5]: 50 and 181
- Total Cell Count [2, 6]: 36 and 162
- Total Cell Count [2, 7]: 46 and 171
- Total Cell Count [2, 8]: 46 and 197
- Population Membrane Permeable-Phenotype (%) [2, 9]: 58% and 0%
- Population Mitochondria Different-Phenotype (%) [2, 9]: 41% and 0%
- Total Cell Count [2, 9]: 156 and 46

Compound: C=CC(=O)Nc1cccc(C)c1Nc1ncc2cc(-c3c(Cl)c(OC)cc(OC)c3Cl)ccc2n1
- Population Hoechst High Intensity Objects (%) [3, 5]: 28% and 0%
- Population Hoechst High Intensity Objects (%) [3, 7]: 39% and 0%
- Population Hoechst High Intensity Objects (%) [3, 9]: 47% and 0%
- Population Pyknosed Nuclei (%) [2, 4]: 20% and 5%
- Total Cell Count [2, 4]: 54 and 243
- Population Fragmented Nuclei (%) [2, 5]: 21% and 5%
- Total Cell Count [2, 5]: 33 and 163
- Population Fragmented Nuclei (%) [2, 6]: 18% and 3%
- Total Cell Count [2, 6]: 78 and 295
- Total Cell Count [2, 7]: 35 and 168
- Total Cell Count [2, 8]: 101 and 579
- Population Mitotic Cells (%) [2, 9]: 22% and 6%
- Total Cell Count [2, 9]: 29 and 152

Compound: CC(C)(C)c1cnc(CSc2cnc(NC(=O)C3CCNCC3)s2)o1 [BMS-387032]
- Population Pyknosed Nuclei (%) ([1]; 12 h): 16% and 5%
- Population Fragmented Nuclei (%) [2, 4]: 30% and 7%
- Population Fragmented Nuclei (%) [2, 5]: 50% and 6%
- Population Membrane Permeable-Phenotype (%) [2, 5]: 15% and 4%
- Population Tubulin-Different-Phenotype (%) [2, 5]: 15% and 49%
- Total Cell Count [2, 5]: 40 and 182
- Population Mitotic Cells (%) [2, 6]: 33% and 5%
- Population Fragmented Nuclei (%) [2, 7]: 48% and 12%
- Population Membrane Permeable-Phenotype (%) [2, 7]: 28% and 7%
- Total Cell Count [2, 7]: 43 and 185
- Population Membrane Permeable-Phenotype (%) [2, 8]: 14% and 2%
- Population Mitotic Cells (%) [2, 8]: 31% and 6%
- Population Fragmented Nuclei (%) [2, 9]: 51% and 14%
- Total Cell Count [2, 9]: 47 and 179

Compound: CCOC(=O)Nc1cc(-c2ccc(C)c(NS(C)(=O)=O)c2)nn2c(C)nnc12
- Population Membrane Permeable-Phenotype (%) [3, 5]: 8, 11, 6, 22%
- Population Mitotic Cells (%) [3, 9]: 19%, 2%, 27%
- Population Mitochondria Different-Phenotype (%) ([1]; 24 h): 29, 8, 13, 18%
- Population Mitochondria Different-Phenotype (%) ([1]; 48 h): 4%, 22%, 12%
- Population Tubulin-Different-Phenotype (%) ([1]; 48 h): 5, 32, 4, 10%
- Population Fragmented Nuclei (%) [2, 5]: 8, 5, 6, 31%
- Total Cell Count [2, 5]: 45, 156, 198, 32
- Population Fragmented Nuclei (%) [2, 7]: 13, 11, 12, 40%
- Population Mitochondria Different-Phenotype (%) [2, 7]: 8, 3, 1, 12%
- Total Cell Count [2, 7]: 61, 207, 241, 32
- Population Membrane Permeable-Phenotype (%) [2, 9]: 18, 14, 3, 5%
- Population Tubulin-Different-Phenotype (%) [2, 9]: 27, 66, 90, 86%
- Total Cell Count [2, 9]: 36, 64, 248, 286

Compound: CC(C)c1cc(-c2ccc(F)c3ccccc23)nc(N)n1
- Population Mitotic Cells (%) [3, 9]: 0% and 45%
- Total Cell Count [2, 4]: 245 and 33
- Population Fragmented Nuclei (%) [2, 5]: 31% and 4%
- Population Membrane Permeable-Phenotype (%) [2, 5]: 20% and 4%
- Population Mitochondria Different-Phenotype (%) [2, 5]: 20% and 1%
- Total Cell Count [2, 5]: 19 and 229
- Population Apoptotic (%) [2, 6]: 52% and 0%
- Total Cell Count [2, 6]: 344 and 50
- Population Fragmented Nuclei (%) [2, 7]: 35% and 5%
- Population Mitotic Cells (%) [2, 7]: 0% and 34%
- Total Cell Count [2, 7]: 31 and 339
- Population Apoptotic (%) [2, 8]: 0% and 40%
- Total Cell Count [2, 8]: 68 and 782
- Population Fragmented Nuclei (%) [2, 9]: 18% and 4%
- Population Membrane Permeable-Phenotype (%) [2, 9]: 15% and 2%
- Population Mitochondria Different-Phenotype (%) [2, 9]: 15% and 1%
- Population Pyknosed Nuclei (%) [2, 9]: 18% and 4%
- Total Cell Count [2, 9]: 32 and 689

A number of entries come with more than one value. The list is limited to them. An entry can have further records. Values given together are repeated measurements (runs, samples, wells, individuals or studies).
